Reference: the supplement of paper PMC9446081
Hit rate of the full screen: of about 39,000 compounds, about 220 (0.56%) showed activity. The list shows a part of the results.

system: Escherichia coli K-12 BW25113; experiment: relative growth (OD600 normalised to plate interquartile mean) (fraction); higher = less growth inhibition, active = 0.2 or less; settings: 50 µM; LB; incubation time: overnight (16-24 h)
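Note: static incubation at 37 °C against the wild-type strain, values averaged over two biological replicates.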

With `C[C@@H]1CCCCO[C@H](CN(C)C(=O)CCC(F)(F)F)[C@H](C)CN([C@H](C)CO)C(=O)c2cc(NS(=O)(=O)c3ccccc3)ccc2O1` as the compound, how does the relative growth read?
Its relative growth is inactive: 1.

`Cc1ccc(S(=O)(=O)N(C)C[C@@H]2OCCCC[C@H](C)Oc3ccc(NC(=O)Nc4ccccc4)cc3C(=O)N([C@H](C)CO)C[C@H]2C)cc1` was tested. Which relative growth did it give?
The relative growth was inactive: 1.03.

With `C[C@@H]1CCCCO[C@@H](CN(C)C(=O)NC2CCCCC2)[C@@H](C)CN([C@H](C)CO)C(=O)c2cc(NS(=O)(=O)c3ccc(Cl)cc3)ccc2O1` as the compound, how does the relative growth read?
The relative growth was inactive: 1.02.

`COc1ccc(S(=O)(=O)Nc2cccc3c2O[C@H](CN(C)Cc2ccc(Oc4ccccc4)cc2)[C@H](C)CN([C@@H](C)CO)C3=O)cc1` was tested. Which relative growth did it give?
The relative growth was inactive: 1.01.

Which relative growth does the source give for `NC1CCN(Cc2nc3ccccc3[nH]2)CC1` here?
Its relative growth is inactive: 0.937.

Which relative growth does the source give for `COc1ccccc1C#Cc1ccc2c(c1)O[C@H](CN(C)Cc1cncnc1)[C@H](C)CN([C@H](C)CO)S2(=O)=O` here?
The relative growth was inactive: 0.922.

`C[C@H]1CN([C@@H](C)CO)C(=O)Cc2cc(NC(=O)c3ccncc3)ccc2O[C@H]1CN(C)Cc1ccc2c(c1)OCO2` was tested. Which relative growth did it give?
The relative growth was inactive: 1.03.

How did the relative growth turn out when `O=S(=O)(Cc1ccccc1)Nn1cnnc1` was run?
The relative growth was inactive: 1.02.

How did the relative growth turn out when `Cc1noc(C)c1S(=O)(=O)Nc1ccc2c(c1)C(=O)N([C@H](C)CO)C[C@@H](C)[C@H](CN(C)Cc1ccccc1)OCCCC[C@H](C)O2` was run?
The relative growth was inactive: 1.

`C[C@@H]1CCCCO[C@H](CN(C)C(=O)CCC(F)(F)F)[C@@H](C)CN([C@H](C)CO)C(=O)c2cc(NS(=O)(=O)c3ccc(F)cc3)ccc2O1` was tested. Which relative growth did it give?
Its relative growth is inactive: 0.989.

With `Cc1noc(C)c1S(=O)(=O)Nc1cccc2c1O[C@@H](CN(C)S(=O)(=O)c1cccs1)[C@@H](C)CN([C@@H](C)CO)C2=O` as the compound, how does the relative growth read?
Its relative growth is inactive: 1.01.

For `C[C@@H]1CN([C@H](C)CO)C(=O)c2cccc(NC(=O)CCCCCC(=O)Nc3ccccc3N)c2O[C@@H]1CN(C)Cc1ccc(Cl)c(Cl)c1`, which relative growth is on record?
Its relative growth is inactive: 0.986.

Which relative growth does the source give for `C[C@@H]1CCCCO[C@H](CN(C)CC2CCCCC2)[C@H](C)CN([C@H](C)CO)C(=O)c2cc(NC(=O)Nc3ccc(C(F)(F)F)cc3)ccc2O1` here?
The relative growth was inactive: 0.985.

With `O=C(O)CCCN1C(=O)c2cccc3cccc(c23)C1=O` as the compound, how does the relative growth read?
Its relative growth is inactive: 1.1.

For `C[C@@H]1CN([C@H](C)CO)C(=O)c2cc(NC(=O)Nc3ccccc3)ccc2O[C@@H](C)CCCCO[C@@H]1CN(C)Cc1ccc(Cl)c(Cl)c1`, which relative growth is on record?
The relative growth was inactive: 1.

`COc1ccc(S(=O)(=O)Nc2ccc3c(c2)CC(=O)N([C@H](C)CO)C[C@H](C)[C@H](CN(C)Cc2ccc(C(=O)O)cc2)O3)cc1` was tested. Which relative growth did it give?
Its relative growth is inactive: 1.02.

For `COc1ccc(CN(C)C[C@H]2OCCCC[C@H](C)Oc3ccc(NC(=O)NC4CCCCC4)cc3C(=O)N([C@H](C)CO)C[C@H]2C)cc1`, which relative growth is on record?
The relative growth was inactive: 0.981.

For `C[C@@H]1CN([C@@H](C)CO)C(=O)CCCn2cc(nn2)CO[C@H]1CN(C)C(=O)Nc1cccc(C(F)(F)F)c1`, which relative growth is on record?
Its relative growth is inactive: 1.01.

`C[C@@H]1CCCCO[C@H](CN(C)S(=O)(=O)c2ccc(F)cc2)[C@@H](C)CN([C@@H](C)CO)C(=O)c2cc(NS(=O)(=O)c3cn(C)cn3)ccc2O1` was tested. Which relative growth did it give?
The relative growth was inactive: 0.996.

How did the relative growth turn out when `COCC#Cc1ccc([C@@H]2[C@@H](CO)N3C(=O)CN(C(=O)c4ccncc4)C[C@H]23)cc1` was run?
Its relative growth is inactive: 1.02.

For `C[C@H](CO)N1C[C@H](C)[C@@H](CN(C)S(=O)(=O)c2cn(C)cn2)Oc2ccc(NC(=O)Cc3cn(C)c4ccccc34)cc2CC1=O`, which relative growth is on record?
Its relative growth is inactive: 0.987.

`CC(=O)OC1CC2CCC3C(CCC4(C)C3CC([N+]3(C)CCCCC3)C4OC(C)=O)C2(C)CC1N1CCCCC1.[Br-]` (configuration not stated) was tested. Which relative growth did it give?
Its relative growth is inactive: 1.03.

With `O=C(O)C1CSCN1` (configuration not stated) as the compound, how does the relative growth read?
Its relative growth is inactive: 0.94.

`COc1ccc(C[C@H](N)C(=O)N[C@H]2[C@@H](O)[C@H](n3cnc4c(N(C)C)ncnc43)O[C@@H]2CO)cc1` was tested. Which relative growth did it give?
Its relative growth is inactive: 0.472.

`C[C@@H]1CN([C@@H](C)CO)S(=O)(=O)c2ccc(Br)cc2O[C@H]1CN(C)S(=O)(=O)c1ccc(F)cc1` was tested. Which relative growth did it give?
Its relative growth is inactive: 1.02.

`C[C@@H]1CCCCO[C@H](CN(C)C(=O)NC2CCCCC2)[C@H](C)CN([C@H](C)CO)C(=O)c2cc(NC(=O)c3ccccc3)ccc2O1` was tested. Which relative growth did it give?
The relative growth was inactive: 0.999.

How did the relative growth turn out when `O=C(NCC(F)(F)F)[C@@H]1c2ccccc2C(=O)N(Cc2cc(C(F)(F)F)cc(C(F)(F)F)c2)[C@H]1c1ccc(CO)cc1` was run?
Its relative growth is inactive: 0.928.

Which relative growth does the source give for `C[C@H](CO)N1C[C@H](C)[C@@H](CN(C)S(C)(=O)=O)Oc2ccc(NC(=O)Cc3ccccc3)cc2C1=O` here?
Its relative growth is inactive: 0.98.

Which relative growth does the source give for `COc1ccc(CN(C)C[C@@H]2OCCCC[C@H](C)Oc3ccc(NC(=O)c4ccncc4)cc3C(=O)N([C@H](C)CO)C[C@H]2C)cc1` here?
The relative growth was inactive: 1.01.

For `C[C@H](CO)N1C[C@H](C)[C@@H](CN(C)C(=O)c2ccccn2)Oc2cc(Br)ccc2S1(=O)=O`, which relative growth is on record?
Its relative growth is inactive: 1.01.

For `COc1ccc(NC(=O)Nc2ccc3c(c2)C(=O)N([C@H](C)CO)C[C@H](C)[C@H](CN(C)S(=O)(=O)c2ccc(C)cc2)OCCCC[C@H](C)O3)cc1`, which relative growth is on record?
Its relative growth is inactive: 1.03.

How did the relative growth turn out when `CC[C@@H](O[Si](C#C[Si](C(C)C)(C(C)C)C(C)C)(C(C)C)C(C)C)c1cn([C@H](CO)Cc2ccccc2)nn1` was run?
Its relative growth is inactive: 0.989.

Which relative growth does the source give for `C[C@H]1CN([C@@H](C)CO)C(=O)Cc2cc(NC(=O)NC3CCCCC3)ccc2O[C@H]1CN(C)Cc1ccc(-c2ccccc2)cc1` here?
The relative growth was inactive: 0.994.

Which relative growth does the source give for `Cc1ccc(S(=O)(=O)Nc2ccc3c(c2)C(=O)N([C@H](C)CO)C[C@@H](C)[C@H](CN(C)CC2CCCCC2)OCCCC[C@@H](C)O3)cc1` here?
The relative growth was inactive: 0.981.

With `C[C@@H]1CN([C@@H](C)CO)C(=O)c2cccc(NC(=O)Nc3ccc4c(c3)OCO4)c2O[C@@H]1CN(C)C(=O)Nc1cccc2ccccc12` as the compound, how does the relative growth read?
Its relative growth is inactive: 0.941.

For `CO[C@H]1CN(C)C(=O)c2cc(NC(=O)NC(C)C)ccc2OC[C@H](C)N(Cc2ccc(-c3ccccn3)cc2)C[C@H]1C`, which relative growth is on record?
Its relative growth is inactive: 1.01.

Which relative growth does the source give for `CO[C@@H](CN(C)C(=O)c1ccccc1F)[C@@H](C)CN([C@H](C)CO)S(=O)(=O)c1ccc(Cl)cc1` here?
Its relative growth is inactive: 0.985.
